Source: the supplement of paper PMC10126150
Sequences with one replicate were seen in a single cluster, so their values are uncertain.

test system: ATP; assay: switch fluorescence ratio, 500 uM ATP over buffer (Cy3 cluster intensity, sum of 5 cycles each) (fold (ratio)); higher = stronger signal-on switching upon ATP binding; sequences stand for … in TCGTCGGCAGCGTCAGATGTGTATAAGAGACAGTTTTTTTTTTTTTTTTTTTTTTTTT…TC; conditions: aptamer strand: ATP DNA aptamer (quencher-CACCTGGGGGAGTATTGCGGAGGAAGG + anchor), 100 nM annealed; ATP concentration: 500 uM; one replicate
Method in brief: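 Cy3-labelled switching-strand clusters on a modified Illumina MiSeq flow-cell were annealed to 100 nM quencher-labelled ATP aptamer, imaged in selection buffer, then imaged after 15 min with 500 uM ATP at 22 °C. Five buffer/ATP cycles ran, with NaOH stripping and re-annealing between them. The fluorescence ratio is summed target-cycle over summed buffer-cycle Cy3 intensity per cluster, averaged per switch-domain sequence. Clusters outside 100-1000 RFU were excluded.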
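Note: ATP exposure 15 min at 22 °C before imaging.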

| Sequence | switch fluorescence ratio |
| --- | --- |
| GACCCGGGGA | 0.998 |
| TATCTATTTC | 1.05 |
| GATTGCCATA | 0.958 |
| TGAGGCGCGA | 1.04 |
| AGGGTTGAAT | 1 |
| TGAGTGAGAA | 0.959 |
| AGCATTCGA | 1.1 |
| CTGTTGCGAT | 1.4 |
| ACTGATGGA | 1 |
| TAGCAGCGTT | 1.22 |
| GGAGGTCGT | 0.973 |
| ACTATTTTCT | 0.976 |
| CCGGAAGGCG | 1.03 |
| TTATTTGCAA | 1.11 |
| GAGTCCTTAA | 1.03 |
| GCTGGCCCTT | 0.982 |
| TTACACCAGG | 2.55 |
| TTTCAGCAGT | 2.55 |
| TTGGCAATGG | 1.52 |
| ATGATACGGG | 1.04 |
| AAGAGCCAGG | 1.09 |
| CGGGTCTCTG | 0.97 |
| GCTCTCAGTG | 1.08 |

| Sequence | switch fluorescence ratio |
| --- | --- |
| CTATGGCACT | 1.02 |
| TGTCCGGCTT | 0.986 |
| CATAAGGCCG | 1.04 |
| TGGTCCGACT | 1.02 |
| ACGGTTTTAT | 1.01 |
| AAATGCGAC | 1.09 |
| ACTGAATATG | 1.04 |
| TTCTCCC | 1.42 |
| GCCTTAAGA | 0.985 |
| CCACGTTGG | 1 |
| CTGCTCCTT | 0.986 |
| GTTCAATGAC | 1.01 |
| TTCATAGCAG | 0.999 |
| GGAATAGGTT | 0.995 |
| ATGTTGAAA | 0.961 |
| TCGCGTTCG | 1.03 |
| TCTAACTCAG | 1.02 |
| GAAGTTCCAG | 0.99 |
| GATCGCTGCG | 1.01 |
| ACGCGCGTAT | 0.953 |
| CGAATAAACA | 0.988 |
| GTGGCCGAAA | 0.99 |
| CAGCAGTTTC | 1.33 |

| Sequence | switch fluorescence ratio |
| --- | --- |
| GAGGACGAAC | 1 |
| GCCAGACAGC | 1.01 |
| CACAATGCTA | 1.23 |
| TATAAGACGT | 0.978 |
| TGCGGCACCT | 1.12 |
| GATGTTGTCA | 0.976 |
| CGGTGCGGGG | 1.01 |
| GTCGGGAGTC | 0.968 |
| TATCCGTTAT | 1.1 |
| GCACAGATGG | 1.06 |
| GTTAAATGA | 0.999 |
| ATTCGAGGAA | 1.01 |
| TCTGCACGTA | 1.12 |
| GTAACCGCTG | 1.05 |
| TCTCGGGGAG | 1.02 |
| CATTTTTATA | 1.01 |
| GAAAGGATAG | 1.05 |
| ATGGCTTTCC | 1.26 |
| CTCCGTCTTC | 1.11 |
| AAATAAGTTG | 1.06 |
| TACGTAGGTC | 1.03 |
| GAGCAAGTT | 1.06 |
| GTGGCTGAGA | 0.999 |

| Sequence | switch fluorescence ratio |
| --- | --- |
| AGCATGGCGG | 1.03 |
| TCAATATGGC | 1.02 |
| CATATTTCAG | 1 |
| CAGCTTCGGA | 1.31 |
| AAGAAGAAAC | 0.901 |
| TACGGTATGG | 1.1 |
| ACACAGGGAG | 1.04 |
| TCCCCCAGTT | 2.97 |
| ACTCCGATC | 4.11 |
| CGACGGAAAC | 3.4 |
| TTGACGTTAG | 0.971 |
| TAAAGAGCCT | 1.06 |
| ATCCGCTGAG | 2.4 |
| GGGGTACTCC | 1.03 |
| ACATAAAGCT | 1.02 |
| GTTACAGGCT | 0.989 |
| GATAACACGT | 0.981 |
| GCTTTTTCAC | 0.985 |
| TGCTCTCTAA | 1.06 |
| CTTGCGAGGA | 1.01 |
| CTAATTGTGG | 0.978 |
| AAGTGGGGAT | 0.996 |
| AACAGACAGG | 1.05 |

| Sequence | switch fluorescence ratio |
| --- | --- |
| TCGTGGAGAG | 0.98 |
| TATTGTCTGC | 1 |
| ACATTTAATA | 1.01 |
| GAGGACCTCA | 0.994 |
| CATGCCGCTC | 1.12 |
| TCTCCAACA | 1.06 |
| CTTGGCCTG | 0.941 |
| CTTGGTGAA | 0.99 |
| TGCTAGGGCG | 0.956 |
| GGAGCTAGCT | 0.97 |
| AATGATTTAG | 0.985 |
| CCAGGTCGAT | 1.34 |
| CAGTGAAGGA | 1 |
| CTCTTACGCG | 0.984 |
| AGTATAAACG | 1.01 |
| TTTTTGCGG | 0.958 |
| TATACGAGTA | 0.995 |
| ACATCGGATT | 0.993 |
| CCGGGTGGTG | 1.08 |
| TAGCTAACGC | 0.996 |
| TTCCATTAAG | 0.985 |
| TACCTACGTT | 1.29 |
| AATTTTCCAT | 0.963 |

| Sequence | switch fluorescence ratio |
| --- | --- |
| AGCGTGGGTG | 1.03 |
| CCCCACGTTG | 1.56 |
| CTGTCTGTTT | 0.951 |
| GCCCAGGGAC | 2.27 |
| GGGTTG | 0.99 |
| TAGTGGAGGT | 1.03 |
| AGTTTTTGC | 0.985 |
| TCGGCTGAAT | 1.02 |
| CATGGGATC | 1.04 |
| TTGACCAAAG | 1.01 |
| AAAGAGGCTA | 1.02 |
| GGAGGGTGAT | 1.04 |
| CAAGGCGAC | 1.04 |
| ATACTGGCGC | 1.14 |
| TCGCCGGTTC | 1.02 |
| ACTCGTTAAT | 1.05 |
| TACCTTAAAC | 1.08 |
| CGAGAATCCG | 0.999 |
| TGAAAA | 0.92 |
| CGTGCCTGGA | 1.01 |
| TCTAGGTCCC | 1.02 |
| ACGGGCGCGT | 1.02 |
| ATGTTGCACG | 0.939 |

| Sequence | switch fluorescence ratio |
| --- | --- |
| GAAGCACAGC | 1.04 |
| CATATAGTG | 0.963 |
| GGATCAAGGC | 1.26 |
| CAAATATTGG | 1.01 |
| CTCTCTTTTT | 0.984 |
| TAATGCAGCT | 0.972 |
| CTGTTTAAGA | 0.963 |
| ATTTAGATTG | 1 |
| ATTCCACATA | 1.06 |
| TTGAGGACTT | 1.01 |
| GATACGGGTC | 0.984 |
| TCTTTAGAAT | 0.962 |
| TGACTTCACG | 1.04 |
| ATGGTTCGCT | 0.949 |
| ATACTCTCTC | 1.09 |
| CGTGGGTCTG | 0.996 |
| GGGGTGTTCC | 1.08 |
| AAATCCAAAT | 1.02 |
| GGATTGGTA | 1.03 |
| GCAGCATGGG | 1.24 |
